Measurements taken from PubChem BioAssay AID588591 (National Center for Advancing Translational Sciences (NCATS), 2011).
Among all 390,000 compounds or so, about 4,700 (1.2%) were called active. Inconclusive means that the source gave no clear call. Such entries were picked first, then a sample of the others. The call rests on the fitted dose curve; in most records, active means well fitted inhibition curve with a large enough effect; inconclusive means small, poorly fitted or top-dose-only effect, or another doubt; inactive means no such curve, though single readings can be large or run the other way. Potencies of inconclusive entries are doubtful fits and often do not repeat.

These molecules were tested against DNA polymerase eta (Homo sapiens) (UniProt Q9Y253) (assay: qHTS for Inhibitors of Polymerase Eta). Conditions: recombinant Pol eta, fluorescent DNA replication assay; series mostly up to 114 µM.
Chain of UniProt Q9Y253 (Q9Y253 whole entry, looked up): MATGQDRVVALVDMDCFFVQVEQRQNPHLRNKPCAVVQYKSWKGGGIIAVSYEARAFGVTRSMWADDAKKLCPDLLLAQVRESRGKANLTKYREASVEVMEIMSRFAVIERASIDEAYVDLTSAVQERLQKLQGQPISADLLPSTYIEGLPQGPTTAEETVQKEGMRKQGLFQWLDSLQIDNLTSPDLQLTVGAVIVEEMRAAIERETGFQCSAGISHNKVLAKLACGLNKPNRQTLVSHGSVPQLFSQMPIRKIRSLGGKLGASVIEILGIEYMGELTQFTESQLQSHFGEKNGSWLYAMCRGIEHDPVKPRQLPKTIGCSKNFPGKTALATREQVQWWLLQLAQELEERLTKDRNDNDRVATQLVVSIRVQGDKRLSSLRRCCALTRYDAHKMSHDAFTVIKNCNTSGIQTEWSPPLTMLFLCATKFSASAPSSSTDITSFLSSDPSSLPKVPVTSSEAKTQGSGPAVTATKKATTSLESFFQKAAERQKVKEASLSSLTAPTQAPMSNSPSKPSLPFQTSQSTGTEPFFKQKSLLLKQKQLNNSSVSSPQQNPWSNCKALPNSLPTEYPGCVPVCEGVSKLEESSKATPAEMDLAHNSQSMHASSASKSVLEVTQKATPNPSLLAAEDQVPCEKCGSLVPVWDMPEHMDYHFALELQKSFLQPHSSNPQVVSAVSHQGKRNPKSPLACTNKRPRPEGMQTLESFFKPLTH
Summary of the method: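 Fluorescent replication assay: 50 nM final substrate added after a 15 min room-temperature compound preincubation with 10 nM enzyme. Signal taken at 0 min and again at 10 min.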
Potency means the concentration at half of the fitted maximal effect; tags describe the fitted curve by direction and shape.

SMILES | Potency
CCOc1ccc(NS(=O)(=O)c2ccc3[nH]cc(C(=O)NCc4ccco4)c(=O)c3c2)cc1 | active: 79.4 µM
COc1ccc2c(COC(=O)CNS(=O)(=O)c3ccccc3)cc(=O)oc2c1 | inconclusive: 56.2 µM [inhibitor, partial curve, poor fit]
CCOCCCNc1nc2ccccc2[nH]1 | inconclusive: 35.5 µM [inhibitor, partial curve, poor fit]
Cc1ccccc1/C=C1\SC(=S)N(/N=C/c2cc([N+](=O)[O-])ccc2O)C1=O | inconclusive: 79.4 µM [inhibitor, partial curve]
N#Cc1ccsc1NC(=O)CN1CCN(S(=O)(=O)c2ccccc2C(F)(F)F)CC1 | inconclusive: 17.8 µM [inhibitor, partial curve, poor fit]
Cc1cccn2c(=O)c(/C=C(\C#N)c3nc4ccccc4n3C)c(Oc3ccc(Br)cc3)nc12 | inconclusive: 8.91 µM [inhibitor, partial curve, poor fit]
O=C(NCCc1ccccc1)c1ccc2c(=O)[nH]c3c(C(=O)NCC4CCCO4)sc(=S)n3c2c1 (stereo not given) | inactive
C[C@@H]1O[C@@H](Oc2c(-c3cc(O)c(O)c(O)c3)oc3cc(O)cc(O)c3c2=O)[C@H](O)[C@H](O)[C@H]1O | inconclusive: 39.8 µM [inhibitor, partial curve, poor fit]
CSc1ccc(/C=C/C(=O)OCC(=O)c2ccc[nH]2)cc1 | inconclusive: 39.8 µM [inhibitor, partial curve, poor fit]
CCN(CC1CCCO1)C(=O)CCc1nnc(CCc2ccccc2)o1 (stereo not given) | inactive
CCCCOC(=O)NS(=O)(=O)c1sc(CC(C)C)cc1-c1ccc(Cn2c(CC)nc3c(C)cc(C)nc32)cc1 | inconclusive: 1.26 µM [inhibitor, full curve, poor fit]
COc1ccccc1NC(=O)CSc1nnc(-c2ccccc2)o1 | inconclusive: 100 µM [inhibitor, partial curve, poor fit]
CN1C(=O)c2ccccc2Sc2ccc(NC(=O)Nc3ccccc3F)cc21 | inactive
CCCC(=O)OCCNc1cc(SCCC(=O)OC)c2nonc2c1[N+](=O)[O-] | inconclusive: 39.8 µM [inhibitor, partial curve, poor fit]
CCCCn1c(SCC(=O)c2ccc(O)c(O)c2)nc2ccsc2c1=O | active: 8.91 µM
COc1cc(/C=C2/SC(=S)N(CC(=O)O)C2=O)ccc1OC(=O)c1cccs1 | inconclusive: 89.1 µM [inhibitor, partial curve]
O=C1Cc2cc(S(=O)(=O)N3CCNCC3)ccc2N1 | inconclusive: 10 µM [inhibitor, partial curve, poor fit]
Cc1cccc(Cn2cccc2/C=C2/C(=N)N3C=CSC3=NC2=O)c1 | inconclusive: 28.2 µM [inhibitor, partial curve, poor fit]
COc1ccc2nc(SCC(C)=O)c(C#N)cc2c1 | inactive
CCOC(=O)c1c(C)oc2c1cc(NS(=O)(=O)c1ccc(C(=O)O)cc1)c1ccccc12 | inconclusive: 44.7 µM [inhibitor, partial curve]

SMILES | Potency
Cc1cccc(N/C(N)=N/c2nc(C(F)(F)F)cc(=O)[nH]2)c1C | inconclusive: 14.1 µM [inhibitor, partial curve, poor fit]
Cc1nn(-c2ccccc2)c(Cl)c1/C=C1\SC(=S)NC1=O | inconclusive: 100 µM [inhibitor, single point]
O=C(O)C1C2C=CC3(CN(C/C=C/c4ccccc4)C(=O)C13)O2 (stereo not given) | inconclusive: 28.2 µM [inhibitor, single point]
O=C(O)c1cccc(Cn2c(Cl)c(/C=N/Nc3ccccc3)sc2=O)c1 | active: 44.7 µM
COc1ccc(CN2CC(C(=O)NCCCN3CCOCC3)CC2=O)cc1 (stereo not given) | inconclusive: 89.1 µM [inhibitor, partial curve, poor fit]
COc1ccc(-c2nc3n(n2)C(=O)CC(c2ccco2)S3)cc1 (stereo not given) | inconclusive: 89.1 µM [inhibitor, single point]
COc1ccc(-n2nc3ccc(NC(=O)c4cc5ccccc5o4)cc3n2)cc1Cl | inactive
C[C@H](NC(=O)c1ccc(C(C)(C)C)cc1)C(=O)N1CCN(C/C=C/c2ccccc2)CC1 | inconclusive: 100 µM [inhibitor, partial curve, poor fit]
COc1cccc(-c2onc3ccc(C(=O)/C=C/N(C)C)cc23)c1 | inconclusive: 79.4 µM [inhibitor, partial curve]
Cc1ccc(NS(=O)(=O)c2cccc(C(=O)OCC(=O)NCc3ccco3)c2)cc1 | inconclusive: 14.1 µM [inhibitor, full curve, poor fit]
C/C(N)=C(/C#N)C(=O)CSc1nnc(Nc2ccccc2)s1 | inactive
CCOc1ccc(N(CC(=O)NCc2ccco2)S(=O)(=O)c2ccc(OC)c(OC)c2)cc1 | inconclusive: 35.5 µM [inhibitor, partial curve, poor fit]
COc1ccc(C(C)=O)cc1CSCCC(=O)O | inactive
COc1ccc(NC(=O)c2nc3nccc(C)n3n2)cc1S(=O)(=O)N1CCOCC1 | inconclusive: 35.5 µM [inhibitor, partial curve, poor fit]
CC1CCCC(n2c(=S)[nH]c3ccccc3c2=O)C1C (stereo not given) | inconclusive: 79.4 µM [inhibitor, partial curve, poor fit]
O=C(OC1CCOC1=O)C1CCN(S(=O)(=O)c2c(Cl)cccc2Cl)CC1 (stereo not given) | inconclusive: 22.4 µM [inhibitor, single point]
CCN(C(=O)COC(=O)C1CCN(S(=O)(=O)c2ccc(C)c(C)c2)CC1)C1CCCCC1 | inconclusive: 79.4 µM [inhibitor, partial curve, poor fit]
COc1ccc(-c2ccc3c(N)c(C(=O)NC(C)C)sc3n2)cc1OC | inconclusive: 44.7 µM [inhibitor, partial curve, poor fit]
O=C1c2ccccc2-c2cccnc21 | inactive
COc1ccc(-n2sc3ccc(F)cc3c2=O)cc1 | inactive
